Data: the supplement of paper PMC9446081
In all, about 39,000 compounds went through this assay and about 220 (0.56%) showed activity. The list shows a part of the results.

test system: Escherichia coli K-12 BW25113; assay: relative growth (OD600 normalised to plate interquartile mean) (fraction); higher = less growth inhibition, active = 0.2 or less; conditions: 50 µM; LB; incubation time: overnight (16-24 h)
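Also: static incubation at 37 °C against the wild-type strain, values averaged over two biological replicates.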

Compound	relative growth
COc1ccc(S(=O)(=O)N(C)C[C@@H]2Oc3ccc(NS(C)(=O)=O)cc3C(=O)N([C@@H](C)CO)C[C@H]2C)cc1	inactive: 1.01
C[C@@H]1CN([C@@H](C)CO)S(=O)(=O)c2ccc(-c3ccc(F)cc3)cc2O[C@H]1CN(C)C(=O)C1CCOCC1	inactive: 1
C[C@@H]1CN([C@@H](C)CO)C(=O)c2cc(-c3cccnc3)cnc2O[C@H]1CN(C)C(=O)Nc1ccc2c(c1)OCO2	inactive: 0.994
O=C(C[C@H]1CC[C@H]2[C@@H](COC[C@@H](O)CN2C(=O)c2ccncc2)O1)NCc1ccc(-c2ccccc2)cc1	inactive: 1.01
C[C@@H]1CN([C@@H](C)CO)C(=O)c2cccc(NC(=O)c3cnccn3)c2O[C@@H]1CN(C)CC1CCCCC1	inactive: 0.994
C(=N\c1cc(-c2ccccc2)nn1-c1ccccc1)/c1ccccc1	inactive: 0.923
Cc1noc(C)c1S(=O)(=O)N(C)C[C@@H]1Oc2ccc(NS(=O)(=O)c3cn(C)cn3)cc2CC(=O)N([C@H](C)CO)C[C@H]1C	inactive: 1.02
COCC#Cc1cnc2c(c1)C(=O)N([C@@H](C)CO)C[C@@H](C)[C@H](CN(C)C(=O)c1ccc3c(c1)OCO3)O2	inactive: 0.99
Cc1noc(C)c1S(=O)(=O)Nc1cccc2c1O[C@H](CN(C)Cc1ccncc1)[C@H](C)CN([C@H](C)CO)C2=O	inactive: 1.01
O=C(N[C@@H]1CC=CC[C@H](CC(=O)N(CCO)Cc2ccccc2)C(=O)N[C@@H](c2ccccc2)COC1=O)OCC1c2ccccc2-c2ccccc21	inactive: 0.998
C[C@@H]1CN([C@@H](C)CO)C(=O)c2cc(NC(=O)c3ccncc3)ccc2O[C@H]1CN(C)Cc1ccc(C(=O)O)cc1	inactive: 0.983
C[C@H](CO)N1C[C@H](C)[C@H](CN(C)S(=O)(=O)c2ccccc2)Oc2ncc(C#Cc3ccccc3F)cc2C1=O	inactive: 1.04
C[C@@H]1CN([C@@H](C)CO)C(=O)c2cc(C3=CCCC3)cnc2O[C@H]1CN(C)S(=O)(=O)c1cn(C)cn1	inactive: 0.997
Cc1ccc(S(=O)(=O)Nc2ccc3c(c2)C(=O)N([C@@H](C)CO)C[C@H](C)[C@@H](CN(C)S(=O)(=O)c2ccc(Cl)cc2)OCCCC[C@H](C)O3)cc1	inactive: 1.02
C[C@@H]1CN([C@H](C)CO)S(=O)(=O)c2ccc(C#CC3CC3)cc2O[C@H]1CN(C)Cc1ccccc1F	inactive: 1.06
C[C@@H]1CCCCO[C@@H](CN(C)C(=O)c2ccccc2)[C@@H](C)CN([C@H](C)CO)C(=O)c2cc(NC(=O)Cc3ccccc3)ccc2O1	inactive: 1.04
CCCCNc1ccc(C(=O)OCCOCCOCCOCCOCCOCCOCCOCCOCCOC)cc1	inactive: 1.09
C[C@H](C(=O)N(C)C[C@H]1OCc2ccccc2-c2c(n(C)c3ccccc23)C(=O)N([C@@H](C)CO)C[C@@H]1C)c1ccccc1	inactive: 1.01
Cc1noc(C)c1S(=O)(=O)N(C)C[C@H]1Oc2ccc(NC(=O)Cc3cn(C)c4ccccc34)cc2CC(=O)N([C@H](C)CO)C[C@@H]1C	inactive: 1.01
C[C@@H]1CN([C@@H](C)CO)C(=O)c2cc(NC(=O)Nc3ccc4c(c3)OCO4)ccc2O[C@H]1CN(C)S(C)(=O)=O	inactive: 0.975
COc1ccc(CN(C)C[C@@H]2OCCCC[C@H](C)Oc3ccc(NC(=O)Nc4ccccc4)cc3C(=O)N([C@H](C)CO)C[C@@H]2C)cc1	inactive: 0.953

Compound	relative growth
N[C@@H](C(=O)O)C1=CCC=CC1	inactive: 0.972
CC(C)(Oc1ccc(C(=O)c2ccc(Cl)cc2)cc1)C(=O)O	inactive: 0.913
C[C@H]1[C@H](NC(=O)/C(=N\OC(C)(C)C(=O)O)c2csc(N)n2)C(=O)N1S(=O)(=O)O	active: 0.0312
C[C@@H]1CN([C@@H](C)CO)C(=O)c2cccc(NC(=O)c3ccncc3)c2O[C@@H]1CN(C)S(=O)(=O)c1cn(C)cn1	inactive: 1
Cc1noc(C)c1NC(=O)N(C)C[C@H]1Oc2c(NC(=O)Nc3ccc(C(F)(F)F)cc3)cccc2C(=O)N([C@H](C)CO)C[C@@H]1C	inactive: 0.985
Cn1cnc(S(=O)(=O)N2C[C@@H](O)COC[C@@H]3O[C@@H](CC(=O)NCc4cccc(F)c4)CC[C@H]32)c1	inactive: 0.982
NC[C@@H](O)COc1ccc2c(c1)OCO2	inactive: 0.972
C[C@H](CO)N1C[C@H](C)[C@H](CN(C)Cc2ccncc2)Oc2cc(C#CCN(C)C)ccc2S1(=O)=O	inactive: 1
FC(F)Oc1cccc2cccnc12	inactive: 0.965
Cc1ccc(S(=O)(=O)Nc2ccc3c(c2)C(=O)N([C@@H](C)CO)C[C@H](C)[C@@H](CN(C)C(=O)Nc2c(C)noc2C)OCCCC[C@H](C)O3)cc1	inactive: 1.01
O=S1(=O)OC(c2ccc(O)cc2)(c2ccc(O)cc2)c2ccccc21	inactive: 0.928
C[C@H](NC(=O)C[C@H]1CC[C@@H](NC(=O)CN2CCOCC2)[C@H](CO)O1)c1ccccc1	inactive: 0.976
Cc1noc(C)c1NC(=O)N(C)C[C@@H]1Oc2ccc(NS(=O)(=O)c3ccccc3)cc2CC(=O)N([C@@H](C)CO)C[C@@H]1C	inactive: 0.993
C[C@@H]1CCCCO[C@@H](CN(C)Cc2ccc(Cl)c(Cl)c2)[C@@H](C)CN([C@@H](C)CO)C(=O)c2cc(NS(=O)(=O)c3ccc(Cl)cc3)ccc2O1	inactive: 0.997
C=CC[C@@H](CC(=O)N[C@@H](CO)Cc1ccccc1)C(=O)N[C@H](C)COC(=O)[C@H](CC=C)CC(=O)OC(C)(C)C	inactive: 1
C[C@@H]1CN([C@H](C)CO)C(=O)Cc2cc(NC(=O)CCCN(C)C)ccc2O[C@H]1CN(C)Cc1ccc(Oc2ccccc2)cc1	inactive: 0.997
COc1ccccc1C#Cc1ccc2c(c1)O[C@H](CN(C)Cc1ccncc1)[C@H](C)CN([C@@H](C)CO)S2(=O)=O	inactive: 1.02
C[C@@H]1CN([C@H](C)CO)C(=O)c2cc(NC(=O)CCCN(C)C)ccc2O[C@H]1CN(C)S(=O)(=O)c1cccs1	inactive: 0.827
C[C@@H]1CN([C@H](C)CO)C(=O)c2cccc(NC(=O)C3CCOCC3)c2O[C@@H]1CN(C)Cc1ccc(C(=O)O)cc1	inactive: 1.01
Cn1cnc(S(=O)(=O)N2C[C@@H](O)COC[C@@H]3O[C@@H](CC(=O)NC4CCCC4)CC[C@H]32)c1	inactive: 1.02
C[C@@H]1CN([C@H](C)CO)S(=O)(=O)c2ccc(Br)cc2O[C@@H]1CN(C)Cc1ccc(-c2ccccc2)cc1	inactive: 1.03

Compound	relative growth
Cn1c(=O)n(C)c2cc(S(=O)(=O)N3CC[C@H]4CNC[C@H]43)ccc21	inactive: 0.987
C#CC1(O)CCC2C3CCC4=C(CCC(=O)C4)C3CCC21C (stereo not drawn)	inactive: 1.15
CC(C)NC(=O)Nc1ccc2c(c1)C(=O)N([C@H](C)CO)C[C@@H](C)[C@H](CN(C)S(=O)(=O)c1ccccc1)O2	inactive: 0.982
CN(C)CCCNC(=O)C[C@@H]1CC[C@@H]2[C@@H](COc3ccc(NC(=O)c4ccc5c(c4)OCO5)cc3C(=O)N2C)O1	inactive: 1
COc1ccc(S(=O)(=O)Nc2ccc3c(c2)C(=O)N([C@@H](C)CO)C[C@@H](C)[C@@H](CN(C)Cc2ccc(C(=O)O)cc2)OCCCC[C@@H](C)O3)cc1	inactive: 0.881
C[C@@H]1CN([C@H](C)CO)C(=O)c2cc(NC(=O)CCC(F)(F)F)ccc2O[C@H]1CN(C)S(C)(=O)=O	inactive: 0.971
COc1cccc(NC(=O)N(C)C[C@@H]2Oc3cc(C#CC4(O)CCCC4)ccc3S(=O)(=O)N([C@H](C)CO)C[C@@H]2C)c1	inactive: 1.01
COc1ccc(NC(=O)N(C)C[C@@H]2Oc3cc(C#CCN(C)C)ccc3S(=O)(=O)N([C@@H](C)CO)C[C@@H]2C)cc1	inactive: 1.02
C[C@H](CO)N1C[C@H](C)[C@@H](CN(C)S(=O)(=O)c2cn(C)cn2)OCCCC[C@H](C)Oc2ccc(NC(=O)Nc3ccc(C(F)(F)F)cc3)cc2C1=O	inactive: 1.03
COCC(=O)Nc1ccc2c(c1)C(=O)N(C)C[C@H](OC)[C@H](C)CN(Cc1ccccc1F)[C@H](C)CO2	inactive: 0.991
COCC#Cc1ccc2c(c1)O[C@@H](CN(C)S(=O)(=O)c1ccc(C)cc1)[C@H](C)CN([C@@H](C)CO)S2(=O)=O	inactive: 1.01
CC(C)NC(=O)Nc1ccc2c(c1)C(=O)N([C@H](C)CO)C[C@H](C)[C@@H](CN(C)Cc1ccc(Oc3ccccc3)cc1)O2	inactive: 0.966
C[C@@H]1CN([C@H](C)CO)C(=O)Cc2cc(NS(=O)(=O)c3ccccc3)ccc2O[C@H]1CN(C)S(=O)(=O)c1cccs1	inactive: 0.995
O=C(NCc1ccc(S(=O)(=O)N2CCOCC2)s1)c1cccnc1C(=O)N1CCOCC1	inactive: 1
O=C(O)C(S)C(S)C(=O)O (stereo not drawn)	inactive: 0.664
O=C(O)c1ccc[nH]1	inactive: 1.01
CCn1nc(C(=O)O)c(=O)c2cc3c(cc21)OCO3	active: 0.0537
CNC(=C[N+](=O)[O-])NCCSCc1ccc(CN(C)C)o1.Cl	inactive: 1.09
COc1ccc(S(=O)(=O)N(C)C[C@@H]2Oc3ccc(NS(=O)(=O)c4ccc(C)cc4)cc3C(=O)N([C@H](C)CO)C[C@H]2C)cc1	inactive: 1.04
O=C1N(CCS(=O)(=O)c2ccccc2)Cc2ccccc2C[C@@]12COC(c1ccc(OCCCO)cc1)=N2	inactive: 1.04
C[C@@H]1CN([C@H](C)CO)C(=O)c2cc(C3=CCCC3)cnc2O[C@H]1CN(C)S(=O)(=O)c1cn(C)cn1	inactive: 1
